Laboratory results from PubChem BioAssay AID1347073 (National Center for Advancing Translational Sciences (NCATS), 2019).
In all, about 45,000 compounds went through this assay and about 200 (0.44%) were called active. Not shown: some 7% with an inconclusive outcome. The call rests on the fitted dose curve; in most records, active means well fitted activation curve with a large enough effect; inconclusive means small, poorly fitted or top-dose-only effect; inactive means no such curve, though single readings can be large or run the other way. The list shows a part of the results.

Assay: qHTS of TDP-43 Inhibitors: NCGC Sytravon Library Screen; further: nearly all actives have a fitted effect of over 55% in size; on growth rescue (activation): 0% is about no effect
Conditions: yeast TDP-43 toxicity rescue, BacTiter-Glo growth, 24 h; series mostly up to 46.1 µM; growth rescue (activation): at the top concentration
Procedure, shortened: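 TDP-43-expressing yeast, pregrown in raffinose, seeded at OD600 0.02 in galactose medium with compound for 24 hr at 30 deg C. Growth read by BacTiter-Glo luminescence, so rescue of toxicity appears as activation.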
Potency means the concentration at half of the fitted maximal effect.

| SMILES | growth rescue (activation) | Potency |
| --- | --- | --- |
| O=C(NC1CCC(O)CC1)c1ccc(S(=O)(=O)NCc2ccco2)cc1 (configuration not stated) | inactive: -3.23% |  |
| O=C(O)CC(NC(=O)c1ccncc1)c1ccccc1 (configuration not stated) | inactive: -9.12% |  |
| C=CCc1cccc2cc(-c3nc4ccc(C)cc4[nH]3)c(=O)oc12 | inactive: 20.9% |  |
| COc1ccc(CCNC(=O)c2ccc3c(c2)N(Cc2ccc(F)cc2)C(=O)c2ccccc2S3(=O)=O)cc1OC | inactive: 2.01% |  |
| COc1ccc(NS(=O)(=O)c2cc(NC(=O)COc3ccccc3)ccc2N2CCOCC2)cc1 | inactive: -3.89% |  |
| Cc1ccc(S(=O)(=O)N(C)CC(=O)NNC(=O)CCC(=O)c2ccc(F)cc2)cc1 | inactive: 5.87% |  |
| CCN(c1ccccc1)S(=O)(=O)c1ccc2[nH]cc(C(=O)NCCOC)c(=O)c2c1 | inactive: 8.75% |  |
| Cc1cc(Cl)c2oc(C(=O)NCCN3CCCCC3CO)c(C)c2c1 (configuration not stated) | inactive: 1.25% |  |
| CCOC(=O)C1=C(SCC(=O)Nc2ccccc2)NC(=O)C(C#N)C12CCCCC2 (configuration not stated) | inactive: -12.3% |  |
| CN(C)c1ccc(P(=O)(Nc2cccc(C(F)(F)F)c2)N2CCOCC2)c(NC(=O)c2cccs2)c1 (configuration not stated) | inactive: 8.61% |  |
| CC(C)CNc1ncnc2c1ncn2[C@H]1CN(CCc2ccccc2)C[C@@H](CO)O1 | inactive: 10.3% |  |
| COC1CCCN(C(=O)c2ccc3nc(Cc4cccc(Cl)c4)oc3c2)C1 (configuration not stated) | inactive: 20.1% |  |
| CC1CCCC(C)N1C(=O)CSc1nnnn1C1CCCC1 (configuration not stated) | inactive: -10.6% |  |
| Cc1ncn(C23CC4CC(CC(C4)C2)C3)n1 | inactive: 19.6% |  |
| COc1ccccc1NC(=O)CSc1nnc(CC(=O)Nc2ccccc2F)n1C | inactive: 3.75% |  |
| COc1cccc(N2CCN(C(=O)Nc3ccccc3Cl)CC2)c1 | inactive: 10.5% |  |
| Cn1c(=O)c2ccccc2n(CC(=O)NC2CCCCC2)c1=O | inactive: -17.9% |  |
| Cc1ccccc1OCC(=O)NNC(=O)CN1C(=O)c2ccccc2C1=O | inactive: 24.2% |  |
| O=C(Nc1ccc(N2CCCCC2)cc1)c1ccccn1 | inactive: -63.1% |  |
| Cc1ccc2nc(SCC3CCCCO3)[nH]c2c1 (configuration not stated) | inactive: -15.7% |  |
| CCOC(=O)C1=C(C(F)(F)F)Nc2ncnn2C1c1ccc(OC)c(OC)c1OC (configuration not stated) | inactive: 9.74% |  |
| Cc1ccc(C(=O)N/C(=C\c2cccc([N+](=O)[O-])c2)C(=O)OCN2C(=O)c3ccccc3C2=O)cc1 | inactive: -2.49% |  |
| Cc1cccc(C)c1OCCOC(=O)c1n[nH]c2ccccc12 |  | active: 14.1 µM |
| O=C(CS(=O)(=O)Cc1ccccc1)NCc1ccco1 | inactive: -0.357% |  |
| CN1CCN(c2ccc(Nc3ccnc4cc(Cl)ccc34)cc2)CC1 | inactive: 1.9% |  |
| Cc1cc(C)cc(N(C(=O)c2csnn2)C(C(=O)NC(C)(C)C)c2ccncc2)c1 (configuration not stated) | inactive: -6.05% |  |

| SMILES | growth rescue (activation) | Potency |
| --- | --- | --- |
| C/C(=N/NC(=O)c1cc(C)[nH]n1)c1ccncc1 | inactive: -0.475% |  |
| COc1ccc(CNC(=O)COC(=O)CN2C(=O)C3CC=CCC3C2=O)cc1 (configuration not stated) | inactive: -5.13% |  |
| CNC(=S)N/N=C/c1cc(Br)cc(Br)c1O | inactive: 18% |  |
| COc1ccccc1N(CC(=O)NCCc1ccccc1)C(=O)CCC(=O)Nc1nccs1 | inactive: -4.88% |  |
| O=C(N/C(=C\c1ccco1)C(=O)N1CCOCC1)c1ccccc1Cl | inactive: 11% |  |
| O=C(CN1CCCC1)Nc1ccc(NC(=O)Nc2ccccc2Cl)cc1 | inactive: -9.84% |  |
| COc1ccc(Cn2nc(C(=O)O)c3ccccc3c2=O)cc1F | inactive: -2.75% |  |
| Cc1cc(NC(=O)CCC(=O)N(Cc2ccco2)C2(C(=O)NC3CCCC3)CCCCC2C)no1 (configuration not stated) | inactive: 2.07% |  |
| O=C(NC1CCCC1)C(c1ccncc1)N(C(=O)c1ccco1)c1ccccc1 (configuration not stated) | inactive: 1.28% |  |
| NS(=O)(=O)c1ccc(CCNC(=O)C2CCC(Cn3c(=S)[nH]c4ccccc4c3=O)CC2)cc1 (configuration not stated) | inactive: 17.2% |  |
| CCc1cccc(CC)c1N1C(=O)c2cc(N3CCOCC3)c([N+](=O)[O-])cc2C1=O | inactive: 14.8% |  |
| O=C(COC(=O)/C=C/c1cccc(Cl)c1)Nc1c(F)cccc1F | inactive: 12.6% |  |
| COc1ccc(-n2nc(C(=O)NCC(=O)NC3CCCCCC3)c3ccccc3c2=O)c(OC)c1 | inactive: 17.2% |  |
| CN(C)S(=O)(=O)c1cccc(NC(=O)Cc2ccsc2)c1 | inactive: -17.3% |  |
| CC1=CC2=NC(=O)CC(C)(C(=O)N(CC(=O)NC3CCCC3)c3cc(C)cc(C)c3)N2C=C1 (configuration not stated) | inactive: -12.8% |  |
| CC(=O)c1c(C)[nH]c(C(=O)NCc2ccco2)c1C | inactive: 2.71% |  |
| COc1ccc(CN(CC(=O)NCc2ccc(F)cc2)C(=O)c2csnn2)cc1 | inactive: 8.19% |  |
| CC(C)(C)C(=O)COC(=O)c1ccc2c(c1)C(=O)N(Cc1ccco1)C2=O | inactive: 1.39% |  |
| CC(=O)c1cc(-c2ccccc2)n(CC(=O)Nc2ccc(C)c(C)c2)c1C | inactive: 12.7% |  |
| C=C(C)c1ccccc1NC(=O)CCN1C(=O)c2ccccc2S1(=O)=O | inactive: 23.6% |  |
| O=C(Nc1cccc(S(=O)(=O)N2CCCCCC2)c1)c1cncc(Br)c1 | inactive: 31.1% |  |
| Cc1cc2nc(-c3ccc(NC(=O)c4ccccc4F)cc3)oc2cc1C | inactive: 2.94% |  |
| O=C(CSc1nc(C2CC2)nc2ccccc12)Nc1ccccc1 | inactive: -8.24% |  |
| COc1ccc(NC(=O)c2cc(-c3ccco3)on2)cc1OC | inactive: -22.9% |  |
| CCOC(=O)Cc1csc(NC(=O)CSc2nnc(-c3ccncc3)o2)n1 | inactive: -14.9% |  |
| CC(C)(C)NC(=O)C1CCCN(S(=O)(=O)c2ccc(-n3cnnn3)cc2)C1 (configuration not stated) | inactive: 4.8% |  |
